The source of these data is PubChem BioAssay AID1508642 (National Center for Advancing Translational Sciences (NCATS), 2021).

Among all 43,000 compounds or so, about 200 (0.47%) were called active. About 12% were inconclusive and are not listed. Calls come from the whole dose curve; as a rule, active = well fitted cell-killing curve with a large enough effect; inconclusive = small, poorly fitted or top-dose-only effect, or effect the other way; inactive = flat fitted curve, though single readings scatter. This is one part of the list.
% is set by controls: 0 for no effect and ±100 for the full control effect.

This experiment is described as follows: Cell viability qHTS assay in S16 Pmp22-F2sN cells. Note: nearly all actives have a fitted effect of over 65% in size. The following applies: S16 Pmp22-F2sN Schwann cells viability, CellTiter-Glo, 24 h; series mostly up to 57.5 µM; activity change, negative = cytotoxicity: at the top concentration. In short, it runs like this: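 S16 Pmp22-F2sN Schwann cells (500-1,000/well) in phenol-red-free DMEM with 10% FBS received 23 nL compound by pin tool for 24 h at 37 °C. Viability was then read as CellTiter-Glo luminescence after 15 min at room temperature.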
(In general: qHTS replaces the single test concentration by a dilution series.)
For the compound `COc1ccccc1CNC(=O)CSc1nc2nc(C)c(Cc3ccccc3C)c(C)n2n1`, the “activity change, negative = cytotoxicity” value was inactive: 2.19%.
With `O=C(NCc1ccc(Cl)cc1)C1CCN(C(=O)c2cnn(-c3ccccc3)c2-n2cccc2)CC1`, the “activity change, negative = cytotoxicity” value is inactive: -14.3%.
`CCc1nnc2c(NCc3ccccc3)nc3ccccc3n12`: the “activity change, negative = cytotoxicity” value is inactive: 3.57%.
The value for `CCOc1ccc(-c2cc(NC(=O)Nc3ccccc3Cl)c(C(=O)OC)s2)cc1` was inactive: -13.7%.
For the compound `Cc1ccc(-c2nnc(Nc3ccc(F)cc3)c3ccccc23)cc1S(=O)(=O)NC(C)C`, the “activity change, negative = cytotoxicity” value is inactive: -0.234%.
In the case of `Cc1ccc(C(=O)N2CCN(c3ccccc3)CC2)cc1NC(=O)c1nsc2ccccc12`, the “activity change, negative = cytotoxicity” value is inactive: -2.04%.
On to `Cc1ccc(/C=C/c2onc(C)c2S(=O)(=O)N2CCC(C(=O)Nc3cccc(C#N)c3)CC2)cc1`, for which the “activity change, negative = cytotoxicity” value is inactive: 18%.
Take `CCN(CC)CCNC(=O)CN1C(=O)CSc2ccc(S(=O)(=O)N3CCOCC3)cc21`: the “activity change, negative = cytotoxicity” value was inactive: 12%.
Turning to `CCOC(=O)COc1ccc(CC)cc1C(=O)c1ccn2nc(-c3ccc(C)cc3)cc2n1`, the “activity change, negative = cytotoxicity” value is inactive: 18.7%.
On to `Cc1ccccc1CSc1nc2c([nH]c3ccccc32)c(=O)n1-c1ccccc1`, for which the “activity change, negative = cytotoxicity” value was inactive: 0.948%.
`Cn1c(-c2cccc(Br)c2)cnc1NCc1cccc(F)c1`: the “activity change, negative = cytotoxicity” value is inactive: -10.8%.
Take `Cc1cccc(-c2nnc(SCC(=O)Nc3ccc(C)c(C)c3)o2)c1`: the “activity change, negative = cytotoxicity” value was inactive: 0.185%.
For `CC(C)c1ccc(NC(=O)C2CCCN(S(=O)(=O)c3ccc4[nH]c(=O)oc4c3)C2)cc1` (centres undefined), the “activity change, negative = cytotoxicity” value was inactive: 1.23%.
For the compound `CCN(CC)S(=O)(=O)c1ccc2c(c1)c(=O)c(C(=O)N1CCN(c3ccc(OC)cc3)CC1)cn2C`, the “activity change, negative = cytotoxicity” value is inactive: 3.15%.
Take `CCc1ccccc1NC(=O)c1nc2nc(C)cc(C(F)F)n2n1`: the “activity change, negative = cytotoxicity” value is inactive: 0.43%.
For `Cc1ccc(CNC(=O)CN2N=C(c3ccc(C)cc3)CCC2=O)cc1`, the “activity change, negative = cytotoxicity” value is inactive: -0.324%.
To `Cc1ccc(CNC(=O)c2cc3c(=O)n4cccc(C)c4nc3s2)cc1` belongs inactive: 4.67%; to `Cc1nc(-c2ccc(F)cc2)sc1CCNC(=O)c1ccccc1C(F)(F)F`, inactive: 5.54%; to `Cc1ccc2oc(C(=O)NCC(c3ccc(Cl)cc3)N3CCOCC3)c(C)c2c1` (centres undefined), inactive: 1.22%.
Consider `CC1=C(C(=O)Nc2ccccc2C)C(c2sccc2C)n2ncnc2N1` (centres undefined), for which the “activity change, negative = cytotoxicity” value is inactive: 3.79%.
With `Cc1ccc(S(N)(=O)=O)cc1NC(=O)c1c(-c2c(Cl)cccc2Cl)noc1C`, the “activity change, negative = cytotoxicity” value is inactive: 0.847%.
On to `Cc1cccc(CSc2ncc(Cl)c(C(=O)Nc3nnc(C)s3)n2)c1`, for which the “activity change, negative = cytotoxicity” value was inactive: -10.1%.
With `Cc1ccc(CNC(=O)CN2C(=O)C3CCCCN3c3ccc(C(=O)N(C)C)cc32)cc1` (centres undefined), the “activity change, negative = cytotoxicity” value is inactive: 6.06%.
As for `COc1ccccc1NC(=O)CN1C(=O)C(C)(C)c2ccccc21`, the “activity change, negative = cytotoxicity” value is inactive: 2.32%.
Turning to `COc1ccccc1C(=O)Nc1ccccc1C(=O)OCc1cc(=O)n2ccsc2n1`, the “activity change, negative = cytotoxicity” value was inactive: 15.8%.
For `CCOC(=O)c1sc(NC(=O)c2nc3nc(C)cc(C(F)F)n3n2)c(C(=O)OC(C)C)c1C`, the “activity change, negative = cytotoxicity” value was inactive: 10.1%.
To `Cc1ccc(-c2nc(CCNC(=O)C(=O)Nc3ccc(C)c(Cl)c3)cs2)cc1` belongs inactive: 2.94%; to `CCCN(CCC)C(=O)Cn1c(SCc2cccc(F)c2)nc2cccnc21`, inactive: -9.45%.
For the compound `CCN1C(=O)N(c2ccc(C(C)=O)cc2)S(=O)(=O)c2ccccc21`, the “activity change, negative = cytotoxicity” value is inactive: 5.17%.
Regarding `CSc1ccc(CCNC(=O)Cn2ncn3c(cc4ccccc43)c2=O)cc1`, the “activity change, negative = cytotoxicity” value was inactive: -0.16%.
For the compound `Cc1ccccc1Nc1c(-c2cccnc2)nc2cccc(C)n12`, the “activity change, negative = cytotoxicity” value was inactive: 4.71%.
As for `Cc1cccc(NC(=O)C2CCCN(S(=O)(=O)c3c(C)n[nH]c3C)C2)c1` (centres undefined), the “activity change, negative = cytotoxicity” value is inactive: 2.38%.
Consider `CCC(C(=O)Nc1ccccc1)n1nc(-c2cc(C)ccc2C)ccc1=O` (centres undefined), for which the “activity change, negative = cytotoxicity” value was inactive: 7.83%.
Take `CCN(C(=O)c1cc2c(=O)n(CC)c3ccccc3c2s1)c1cccc(C(F)(F)F)c1`: the “activity change, negative = cytotoxicity” value was inactive: -5.07%.
In the case of `Cn1nc(-c2ccc(OCC(=O)Nc3ccc(Cl)cc3)cc2)c2ccccc2c1=O`, the “activity change, negative = cytotoxicity” value is inactive: -5.46%.
Consider `CCOc1ccc(-c2nnc(SCC(=O)NC(C)CC)nc2-c2ccc(OCC)c(OC)c2)cc1OC` (centres undefined), for which the “activity change, negative = cytotoxicity” value is inactive: 5.93%.
To `COc1cccc(NC(=O)Cn2c(=O)ccc3cc(S(=O)(=O)N4CCC(C)CC4)ccc32)c1` belongs inactive: 6.2%; to `COc1ccc(Cl)cc1S(=O)(=O)N1CCN(CC(=O)Nc2ccccc2C(F)(F)F)CC1`, inactive: 0.752%.
As to `CCOc1ccc(-n2nc3ccc(NC(=O)c4cccc(F)c4)cc3n2)cc1`, the “activity change, negative = cytotoxicity” value is inactive: 21.6%.
As to `CCSc1nc2c([nH]c3ccccc32)c(=O)n1-c1cccc(OC)c1`, the “activity change, negative = cytotoxicity” value was inactive: 14.3%.
Consider `COc1ccc(-c2nc(CCNC(=O)c3c(F)cccc3Cl)cs2)cc1`, for which the “activity change, negative = cytotoxicity” value is inactive: -6.24%.
Regarding `CCCCNc1ccc(-c2nc(-c3ccncc3)no2)cc1[N+](=O)[O-]`, the “activity change, negative = cytotoxicity” value was inactive: 22.9%.
On to `CCCCc1nn2c(=O)cc(COC(=O)c3ccco3)nc2s1`, for which the “activity change, negative = cytotoxicity” value was inactive: 20.1%.
On to `CC(=O)Nc1nonc1-c1nnc(SCC(=O)Nc2cccc(C)c2C)n1-c1ccccc1`, for which the “activity change, negative = cytotoxicity” value was inactive: -4.02%.
Regarding `COc1cc(C(=O)Nc2cccc(OCc3cc(=O)n4cc(C)sc4n3)c2)cc(OC)c1OC`, the “activity change, negative = cytotoxicity” value is inactive: 29.7%.
To `COc1ccc(Cn2cc(C(=O)c3ccc(F)cc3)c(=O)c3cc4c(cc32)OCCO4)cc1` belongs inactive: 3.1%.
In the case of `Cc1nn(C)c(C)c1CCNC(=O)Nc1cccc(Cl)c1C`, the “activity change, negative = cytotoxicity” value was inactive: 6.82%.
Consider `COc1ccc(-c2nc3ccccc3o2)cc1NC(=O)c1ccc(-c2ccc(Br)cc2)o1`, for which the “activity change, negative = cytotoxicity” value is inactive: 14.2%.
Consider `CCOC(=O)c1nn2c(C(F)(F)F)cc(-c3ccc(C)cc3)nc2c1Cl`, for which the “activity change, negative = cytotoxicity” value was inactive: 11.5%.
